Test results as given in the supplement of paper PMC4967469.
IC50 is the fitted dose that halves viability relative to control wells, and lower means more sensitive; a limit (>, <) means that the fit lies beyond the doses tested. AUC, from the same fit, is the share of area under the viability curve across the 256-fold dose range; it is 1 without any effect and falls as sensitivity rises. The top dose, if marked as inferred, is not printed in the source and was worked back from the curve model.

The cell lines below were run with CCCCCCCCCCCC1=C(O)C(=O)C=C(O)C1=O [Embelin] (assay: Viability of human cancer cell lines after 72 h of drug (GDSC screen)). Conditions: top dose 32 µM; top dose inferred.
Experimental: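 Human cancer cell lines in 384-well plates, medium with 10% serum, drug for 72 h over a 256-fold dose range (nine 2-fold or five 4-fold steps up to the top dose). Adherent lines were fixed and stained with the nucleic acid dye Syto60, suspension lines read with resazurin; signal relative to control wells, capped at 0 and 100%. One two-parameter sigmoid per drug and line, fitted in a mixed model over all curves with the slope shared within a line.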

Row | Cell Line | AUC | IC50 [µM]
1 | Hs-578-T (breast, adherent) | 0.767 | 12.6
2 | HuCCT1 (biliary tract, adherent) | 0.747 | 11.3
3 | HuH-7 (liver, adherent) | 0.764 | 11.6
4 | HuO9 (osteosarcoma, adherent) | 0.866 | > 32
5 | HuO-3N1 (osteosarcoma, adherent) | 0.898 | > 32
6 | HuP-T3 (pancreas, adherent) | 0.948 | > 32
7 | HuP-T4 (pancreas, adherent) | 0.692 | 7.19
8 | IA-LM (large cell lung carcinoma, adherent) | 0.531 | 2.46
9 | IGR-1 (melanoma, adherent) | 0.667 | 5.47
10 | IGR-37 (melanoma, adherent) | 0.622 | 4.19
11 | IHH-4 (thyroid, semi-adherent) | 0.751 | 8.76
12 | IM-9 (myeloma, suspension) | 0.96 | > 32
13 | IM-95 (stomach, adherent) | 0.715 | 8.53
14 | IMR-5 (neuroblastoma, adherent) | 0.893 | 27.4
15 | IPC-298 (melanoma, adherent) | 0.791 | 14.1
16 | IST-MEL1 (melanoma, adherent) | 0.699 | 8.18
17 | IST-MES1 (mesothelioma, adherent) | 0.906 | > 32
18 | IST-SL1 (small cell lung carcinoma, semi-adherent) | 0.889 | > 32
19 | IST-SL2 (small cell lung carcinoma, suspension) | 0.93 | > 32
20 | J82 (bladder, adherent) | 0.675 | 6.15
21 | JAR (urogenital system, adherent) | 0.957 | > 32
22 | JEG-3 (urogenital system, adherent) | 0.795 | 13.2
23 | JHH-1 (liver, adherent) | 0.666 | 6.04
24 | JHH-2 (liver, adherent) | 0.936 | > 32
25 | JHH-4 (liver, adherent) | 0.698 | 7.18
26 | JHH-6 (liver, adherent) | 0.802 | 16.1

Row | Cell Line | AUC | IC50 [µM]
27 | JHH-7 (liver, adherent) | 0.633 | 4.53
28 | JHU-011 (head and neck, adherent) | 0.777 | 12.6
29 | JHU-022 (head and neck, adherent) | 0.877 | > 32
30 | JHU-029 (head and neck, adherent) | 0.685 | 7.5
31 | JIMT-1 (breast, adherent) | 0.777 | 13.9
32 | JJN-3 (haematopoietic neoplasm, suspension) | 0.911 | 31.2
33 | JM1 (B-cell lymphoma, suspension) | 0.717 | 7.39
34 | JSC-1 (B-cell lymphoma, suspension) | 0.798 | 15
35 | JURL-MK1 (chronic myeloid leukaemia, suspension) | 0.798 | 15.1
36 | JVM-2 (lymphoid neoplasm, suspension) | 0.977 | > 32
37 | JVM-3 (lymphoid neoplasm, suspension) | 0.965 | > 32
38 | JiyoyeP-2003 (Burkitt lymphoma, suspension) | 0.723 | 7.83
39 | K2 (melanoma, adherent) | 0.732 | 11.3
40 | K5 (thyroid, adherent) | 0.86 | 25.1
41 | KALS-1 (glioma, adherent) | 0.787 | 19.9
42 | KARPAS-45 (lymphoblastic leukaemia, suspension) | 0.827 | 15.4
43 | KARPAS-231 (B-cell leukaemia, suspension) | 0.679 | 5.55
44 | KARPAS-299 (anaplastic large cell lymphoma, suspension) | 0.973 | > 32
45 | KARPAS-422 (B-cell lymphoma, suspension) | 0.825 | 18.8
46 | KARPAS-620 (haematopoietic neoplasm, suspension) | 0.852 | 19.5
47 | KCL-22 (chronic myeloid leukaemia, suspension) | 0.714 | 7.14
48 | KE-37 (lymphoblastic leukaemia, suspension) | 0.499 | 1.99
49 | KELLY (neuroblastoma, adherent) | 0.733 | 8.56
50 | KG-1 (acute myeloid leukaemia, suspension) | 0.907 | > 32
51 | KGN (ovary, adherent) | 0.573 | 3.3
52 | KINGS-1 (glioma, adherent) | 0.922 | > 32

Row | Cell Line | AUC | IC50 [µM]
53 | KLE (endometrium, adherent) | 0.838 | > 32
54 | KM12 (large intestine, adherent) | 0.759 | 12.1
55 | KM-H2 (Hodgkin lymphoma, suspension) | 0.879 | 24.4
56 | KMH-2 (thyroid, adherent) | 0.749 | 9.4
57 | KMOE-2 (acute myeloid leukaemia, suspension) | 0.945 | > 32
58 | KMRC-1 (kidney, adherent) | 0.832 | 22.2
59 | KMRC-20 (kidney, adherent) | 0.896 | > 32
60 | KMS-12-BM (myeloma, suspension) | 0.907 | 30.7
61 | KNS-42 (glioma, adherent) | 0.875 | > 32
62 | KNS-81-FD (glioma, adherent) | 0.805 | 23.6
63 | KON (head and neck, adherent) | 0.639 | 4.81
64 | KOPN-8 (B-cell leukaemia, suspension) | 0.717 | 7.38
65 | KOSC-2 (head and neck, adherent) | 0.867 | 31.1
66 | KP-1N (pancreas, adherent) | 0.75 | 10.9
67 | KP-2 (pancreas, adherent) | 0.7 | 7.69
68 | KP-3 (pancreas, adherent) | 0.865 | > 32
69 | KP-4 (pancreas, adherent) | 0.787 | 13.4
70 | KP-N-YN (neuroblastoma, adherent) | 0.904 | > 32
71 | KP-N-YS (neuroblastoma, adherent) | 0.871 | > 32
72 | KS-1 (glioma, adherent) | 0.806 | 21.2
73 | KU812 (chronic myeloid leukaemia, suspension) | 0.944 | > 32
74 | KU-19-19 (bladder, adherent) | 0.865 | 28.2
75 | KURAMOCHI (ovary, adherent) | 0.68 | 6.92
76 | KY821 (leukaemia, suspension) | 0.958 | > 32
